PubChem BioAssay AID686979 (National Center for Advancing Translational Sciences (NCATS), 2013)
Among all 420,000 compounds or so, about 50,000 (12%) were called active. About 26% were inconclusive and are not listed. Calls follow the shape of the dose curve; as a rule, active = well fitted inhibition curve with a large enough effect; inconclusive = small, poorly fitted or top-dose-only effect; inactive = flat fitted curve, though single readings scatter. The list shows a part of the results, in another mix than the full data.

Experiment: qHTS for Inhibitors of human tyrosyl-DNA phosphodiesterase 1 (TDP1): qHTS in cells in presence of CPT; also: nearly all actives have a fitted effect of over 55% in size
Conditions: chicken DT40 Tdp1-/-;hTDP1 cells + 20 nM CPT, ATP luminescence, 48 h; series mostly up to 46.2 µM; activity change, negative = growth inhibition: at the top concentration
Outline: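 Chicken DT40 Tdp1-/- cells stably complemented with human TDP1 were seeded at 400 cells/well in medium containing 20 nM camptothecin, exposed to pin-transferred compounds, and grown at 37 °C for at least 48 hr. Viability was read as ATP luminescence.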
% is scaled to controls: 0 for no effect and ±100 for the full control effect; potency is read from the fitted curve at half-maximal effect.

SMILES	Potency	activity change, negative = growth inhibition
C/C=C/c1ccc(Oc2nnnn2-c2ccc(C(N)=O)cc2)c(OC)c1	active: 14.6 µM	
CCN1C(=O)[C@H]2[C@@H](c3ccc(-c4ccc(Cl)c(Cl)c4)cc3)N[C@@](CC(C)C)(C(=O)OC)[C@H]2C1=O	active: 4.11 µM	
CC(C)(C)c1cnnn1-c1ccc(C(=O)CCl)cc1	active: 1.3 µM	
CC(=O)c1ccc(NC(=O)c2cn(C)c(=O)c3ccccc23)cc1		inactive: 1.61%
CC(C)(C)S(=O)N1Cc2ccc(CO)cc2[C@H]1CCO (some centres undefined)		inactive: -27.6%
O=C(CCCN1CC=C(n2c(=O)[nH]c3ccccc32)CC1)c1ccc(F)cc1	inactive	
CC(=C/c1ccccc1)/C=N/n1c(-c2ccco2)n[nH]c1=S		inactive: -7.97%
COc1ccc(NC(=O)c2cn(CCC#N)nc2-c2cccs2)cc1		inactive: -11.1%
COc1cccc(CNC(=O)c2cc(S(=O)(=O)N3CCCCC3)c[nH]2)c1		inactive: -18.3%
O=C1C2C3C=CC(C2C(=O)N1C1CCCCC1)C1C(=O)N(C2CCCCC2)C(=O)C31 (centres undefined)		inactive: -29.2%
O=C(CSc1nc2ccccc2[nH]1)N/N=C/C=C/c1ccccc1[N+](=O)[O-]		inactive: 3.02%
Cc1cc(/C=C(\C#N)C(=O)O)c(C)n1CCC(C)C		inactive: -19.3%
CCCCCC(O)(c1ccc(OC)cc1)C(CN1CCOCC1)c1ccccc1 (centres undefined)	active: 16.4 µM	
Cc1ccccc1C(=O)NCC(=O)Nc1ccccc1C(F)(F)F		inactive: 14.6%
Cc1cccc(N/N=C/c2ccc(C)s2)c1	active: 29.1 µM	
COc1nc(C#N)nc(N(C)C)n1		inactive: 2.28%
Cc1cc(-c2ccc(C)c(S(=O)(=O)NCc3cccc(Br)c3)c2)on1		inactive: -24.5%
O=C1S/C(=C\c2ccccc2)C(=O)N1CC(O)Cn1c2ccccc2c2ccccc21 (centres undefined)		inactive: 0.12%
Cc1cc(C)c2c(CN3CC(C)OC(C)C3)cc(=O)oc2c1C (centres undefined)		inactive: 15.8%
CCO[C@@H]1OC(C(=O)NCc2ccccc2)=C[C@H](c2ccc3c(c2)OCO3)[C@H]1CCCO		inactive: -8.27%
C[C@@]12C(=O)OC(=O)[C@]1(C)C1CCC2O1	inactive	
CCN(CC)CCSC(=O)C(c1ccccc1)c1ccccc1		inactive: -20.2%
CCOC(=O)CCCc1c[nH]c2ccccc12		inactive: -3.4%
COc1ccc(/C=N/NC(=O)c2ccn[nH]2)cc1Cn1cc([N+](=O)[O-])cn1		inactive: -0.547%
COc1cc(-c2cc(N)n(S(=O)(=O)c3ccc(F)cc3)n2)cc(OC)c1OC	active: 16.4 µM	
Cc1cc(C)nc(/N=C(\N)Nc2ccc(-c3ccccc3)cc2)n1	active: 7.31 µM	
Cn1c(=O)oc2cc(S(=O)(=O)Nc3ccccc3O)ccc21		inactive: -24.8%
COc1ccc(-c2cn(Cc3ccc4ccccc4c3)nn2)cc1		inactive: -29.5%
C[C@H]1CN([C@@H](C)CO)C(=O)CCCn2nncc2CO[C@H]1CN(C)S(=O)(=O)c1ccccc1		inactive: -6.42%
